Assay results taken from PubChem BioAssay AID1159614 (National Center for Advancing Translational Sciences (NCATS), 2016).
The whole screen tested about 45,000 compounds, of which about 65 (0.1%) were called active. Calls come from the whole dose curve; as a rule, active = well fitted activation curve with a large enough effect; inconclusive = small, poorly fitted or top-dose-only effect; inactive = no such curve, though single readings can be large or run the other way. Some of the results follow.

target: Galactocerebrosidase (Homo sapiens) (UniProt P54803); experiment: A Novel Cell-Based Assay to Identify Small Molecules for B -Galactocerebrosidase; conditions: 145M-Twi-hGALC-G270D cells (Twitcher mouse brain line with human GALC G270D), HMU-beta-Gal fluorescence, 48 h; series mostly up to 57.5 µM; activation: at the top concentration; note: 0% is about no effect; nearly all actives have a fitted effect of over 65% in size
In short: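 Live 145M-Twi cells (Twitcher mouse brain-derived, GALC-null) stably expressing human GALC-G270D, with a wild-type GALC line, were compound-treated. Residual GALC activity was then read as fluorescence from 0.1 mM final HMU-β-gal at pH 5.2; higher signal means activation.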

Sequence of UniProt P54803 (P54803 whole entry, looked up): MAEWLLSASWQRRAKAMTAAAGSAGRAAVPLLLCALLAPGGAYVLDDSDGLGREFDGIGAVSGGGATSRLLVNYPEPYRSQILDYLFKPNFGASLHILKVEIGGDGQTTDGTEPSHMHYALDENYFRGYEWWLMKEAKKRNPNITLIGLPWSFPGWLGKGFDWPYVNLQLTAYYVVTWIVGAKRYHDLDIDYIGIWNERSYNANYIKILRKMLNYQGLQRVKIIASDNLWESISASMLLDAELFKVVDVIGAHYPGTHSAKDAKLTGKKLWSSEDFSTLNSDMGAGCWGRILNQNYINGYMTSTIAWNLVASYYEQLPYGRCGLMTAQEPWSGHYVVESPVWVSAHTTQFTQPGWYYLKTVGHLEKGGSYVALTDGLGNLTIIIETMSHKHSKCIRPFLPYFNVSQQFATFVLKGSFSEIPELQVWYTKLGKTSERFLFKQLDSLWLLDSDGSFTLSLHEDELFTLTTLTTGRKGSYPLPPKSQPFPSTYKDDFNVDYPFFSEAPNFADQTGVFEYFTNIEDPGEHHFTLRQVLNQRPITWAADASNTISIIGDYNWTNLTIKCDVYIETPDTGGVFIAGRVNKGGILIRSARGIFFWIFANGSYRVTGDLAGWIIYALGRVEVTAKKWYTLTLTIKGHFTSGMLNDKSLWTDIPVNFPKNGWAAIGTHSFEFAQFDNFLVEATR

activation, inactive:
COc1ccc(N2Cc3cccc(C(=O)Nc4ccc(C(C)C)cc4)c3C2=O)cc1 3.39%, CCCCOC(=O)c1ccc(NC(=O)c2cc(-c3ccccc3)on2)cc1 -12.5%, CS(=O)(=O)NCC(c1ccco1)N1CCN(c2ccccc2)CC1 (stereo not given) 0.383%, COc1ccccc1CNc1cc(-c2ccccc2)nc2nncn12 -21.3%, CCOc1cccc(C(=O)Nc2c(C(=O)c3ccc(OC)cc3)oc3ccccc23)c1 -8.54%, O=C(CN(c1ccc(Cl)c(C(F)(F)F)c1)S(=O)(=O)c1ccccc1)N1CCc2ccccc2C1 -19%, Cc1nc2ccn(Cc3cccs3)c(=O)c2cc1C(=O)N1CCN(c2ccc(F)cc2)CC1 -6.62%, Cc1ccc(NC(=O)c2sc(-n3nc(C)c(CCC(C)C)c3C)nc2C)cc1C -9.88%, C=CCc1ccc(O)c(OC)c1 -10.1%, Cc1cccc(CSc2ncc(CO)n2Cc2ccc(F)cc2)c1 -26.5%, O=C(Nc1ccc2oc(-c3ccccc3F)nc2c1)c1ccccc1Cl -6.96%, Cc1ccc2c(c1)-c1nc(-c3ccc(Cl)cc3)cc(-c3coc4ccccc4c3=O)c1CO2 6.3%, Cc1cc(C)c2c(=O)cc(C(=O)Nc3sc4c(c3C(=O)NCc3ccccc3)CCCC4)oc2c1 -22.5%, COc1ccc(NC(=O)CSc2ncc3c(n2)-c2cc(Cl)ccc2N(Cc2ccccc2F)S3(=O)=O)cc1 -5.52%, CCCSc1ncc(Cl)c(C(=O)Nc2ccc(S(=O)(=O)Nc3ncccn3)cc2)n1 -8.86%, CCOC(=O)c1c(NC(=O)CSc2cn(CCNC(=O)c3ccccc3F)c3ccccc23)sc2c1CCC2 9.65%, COC(=O)c1cc(S(=O)(=O)NCC2CCN(Cc3ccc(F)cc3)CC2)cn1C -3.25%, O=C(Nc1ccc2nc(SCC(=O)N3CCCc4ccccc43)sc2c1)c1cccc(F)c1 -24.4%, Fc1ccc(-n2ncc3c(NCCCN4CCOCC4)ncnc32)cc1 -10.6%, CCOCCc1nn2c(=O)cc(COC(=O)CNC(=O)c3ccc(C(C)(C)C)cc3)nc2s1 -5.34%, Cc1ccc(Cl)cc1N1CCN(S(=O)(=O)c2ccc3[nH]c4c(c3c2)CCCCC4)CC1 -38.3%, COc1cc(NC(=O)CCc2c(C)nn(-c3ccc4nncn4n3)c2C)cc(OC)c1OC -5.65%, COc1cccc(CNC(=O)c2ccc(CSc3nc4ccncc4n3Cc3cccc(C)c3)cc2)c1 -0.643%, Cc1ccc2c(c1)N(CCC(=O)NCc1ccc(F)cc1)C(=O)CO2 -16%, COc1ccccc1CNS(=O)(=O)c1cc(C(=O)Nc2cccc(C(F)(F)F)c2)ccc1F -10.6%, CC(C)COC(=O)/C(C#N)=C\c1ccc(-c2ccccc2Cl)o1 -17.3%, Cc1c(CC(=O)NCCc2ccccc2F)c(=O)oc2c(C)c3occ(C(C)(C)C)c3cc12 -10.7%, COc1ccc(NC(=O)CSc2cn(CC(=O)N3CCOCC3)c3ccccc23)cc1OC -16.6%, COc1cccc(N2CCN(C(=O)c3ccc4c(=O)n(CCc5ccccc5)c(=O)[nH]c4c3)CC2)c1 -6.54%, O=C(CSc1ncc(S(=O)(=O)c2ccc(Br)cc2)c(=O)[nH]1)NCc1ccc(Cl)cc1 -7.44%, Cc1ccc(C)c(NC(=O)CCN2C(=O)c3ccccc3Sc3ncccc32)c1 -3.26%, CCOc1ccc(-c2nc(CSCC(=O)N3CCN(c4cccc(C(F)(F)F)c4)CC3)c(C)o2)cc1 -43.6%, O=C(Nc1ccccc1)C(Cc1ccccc1)N1Cc2ccccc2C1=O (stereo not given) -6.15%, CCc1ccc(S(=O)(=O)c2nnn3c2nc(N2CCC(C)CC2)c2cc(Cl)ccc23)cc1 -1.07%, COc1ccc(-c2cc(C(=O)NCc3cc(OC)c(OC)c(OC)c3)[nH]n2)cc1 -26.6%, Cc1cccc(OCC(=O)Nc2c(C)ccc3nsnc23)c1C -11.9%, Cc1nc(N2C(=O)c3oc4ccccc4c(=O)c3C2c2ccccc2F)sc1C (stereo not given) -5.77%, COc1cccc(N2CCN(S(=O)(=O)c3cc(Br)cc4c3N(C(=O)C3CC3)CC4)CC2)c1 -8.7%, COc1ccc(C2=NS(=O)(=O)N(C)C(C(=O)Nc3cc(C)ccc3O)=C2)cc1OC -7.64%, Cc1ccc(C)c(CSc2nc3ncccc3[nH]2)c1 -4.16%, Cc1cccc(-c2noc(CN(C(=O)COc3ccc(C(C)C)cc3)C(C)C)n2)c1 -39.4%, CCOC(=O)c1c(C)n(-c2ccccc2)c2ccc(OC(=O)c3ccccc3)cc12 -26.9%, Cc1cccc(N2C(=O)CSC23C(=O)N(Cc2cccc(F)c2)c2ccccc23)c1 (stereo not given) -39.8%, CN1CCN(C(CNC(=O)C(=O)Nc2ccccc2)c2ccc3c(c2)OCO3)CC1 (stereo not given) -9.81%, COc1cccc(NC(=O)NCc2ccc3c(c2)CCN3C(=O)c2ccccc2)c1 -3.4%, Cc1cccc(C(=O)Nc2sc3c(c2C(=O)NCc2ccco2)CCCC3)c1 -10.6%, Cc1ccc2[nH]c(=O)c3cc(C(=O)N4CCN(c5ccccc5)CC4)sc3c2c1 2.49%, CCN(CC)S(=O)(=O)c1ccc2c(c1)N(CC(=O)NCCCN1CCN(c3ccccc3F)CC1)C(=O)CO2 -5.42%, COC(=O)c1sccc1S(=O)(=O)N1CCN(c2ccccc2)CC1 -8.07%, COc1ccccc1C1C=C(c2ccc(F)cc2)Nc2nc(-c3ccc(Cl)cc3)nn21 (stereo not given) -8.9%, CCCc1nn2c(=O)cc(COC(=O)c3cccc(NC(=O)COc4ccc(F)cc4)c3)nc2s1 -16%, Clc1cccc(N2CCN(c3ncnc4c3nc3n4CCCCC3)CC2)c1 -9.05%, CCOC(=O)c1scc(-c2ccccc2)c1S(=O)(=O)Nc1ccccc1F -28.4%, CCc1ccc(NC(=O)c2cc(C(C)=O)n3ccccc23)cc1 -15%, CC(C)c1ccc(C2N3CC4(C)CN2CC(c2ccccc2)(C3)C4=O)cc1 (stereo not given) -21.6%, Cc1ccccc1NC(=O)c1ccc(F)c(S(=O)(=O)N(C)Cc2ccccc2)c1 -2.24%, Cc1cc(C)c(Cn2c3ccccc3c3cnn(CC(=O)NC4CCC(C)CC4)c(=O)c32)c(C)c1 (stereo not given) 21.8%, O=C(O)c1cc(NC2(c3ccccc3)C(=O)c3ccccc3C2=O)ccc1Cl -24.2%, Cc1nc(-c2ccc(Cl)cc2)sc1CCNC(=O)C(=O)Nc1ccc(F)cc1F -18.5%, CCCCN1C(=O)c2[nH]nc(-c3ccccc3O)c2C1c1cccc(OCc2ccccc2)c1 (stereo not given) -9.56%, O=C(Cn1c(=O)oc2cc(S(=O)(=O)N3CCCCC3)ccc21)Nc1cccc(Cl)c1 -16.6%, Cc1ccccc1-n1c(SCC(=O)Nc2ccc(Cl)cc2F)nnc1-c1cc2occc2n1C -19.5%, Cc1cccc(NC(=O)CCCn2c(C)c3cnn(-c4ccccc4)c(=O)c3c2C)c1C -16.2%, Cc1oc2c(c(C)cc3oc(=O)c(CC(=O)NCCc4ccccc4F)c(C)c32)c1C -2.89%, CCOC(=O)C1CCN(c2ncnc3c2c(-c2ccccc2)cn3-c2cccc(C)c2)CC1 -7.57%, CCc1ccc(NC(=O)CN2CCN(Cc3ccccc3)S2(=O)=O)cc1 -4.04%, Cc1ccc(Cn2c(C(=O)O)c(CNCc3ccccc3Cl)c3ccc(C)cc32)cc1 -17.2%, O=C(Nc1ccc2oc(-c3cccnc3)nc2c1)c1cccc(Br)c1 -13.5%, COc1cccc(NC(=O)CSc2nc3c(oc4ccccc43)c(=O)n2Cc2ccco2)c1 -17.4%, Cc1ccc(N(CC(=O)NCCc2ccc(Cl)cc2)S(=O)(=O)N(C)C)cc1 4.72%, O=C(Cn1ccn(-c2ccc(F)c(F)c2)c(=O)c1=O)Nc1ccccc1F -15.8%, CCOc1ccccc1CNS(=O)(=O)c1ccc2c(c1)CCCN2C(C)=O -13.1%, Cc1ccc(-c2nc3cc(C(C)C)ccc3o2)cc1NC(=O)c1cc2ccccc2o1 0.936%, CCc1ccc(CNC(=O)c2sc3ncccc3c2-n2c(C)ccc2C)cc1 -44.4%, Cc1ccc(CN2CCc3nc(N4CCN(c5ncccn5)CC4)ncc3C2)cc1 -25.9%, Cc1ccc(C)n1-c1nnc(N2CCCC(C(=O)NCc3ccc(Cl)cc3)C2)s1 (stereo not given) -28.9%, Cc1ccc(OCC(=O)Nc2ccc(S(=O)(=O)Nc3cc(C)nc(C)n3)cc2)c(Br)c1 1.75%, Cc1cccc(NC(=O)C(=O)NCC(c2ccc3c(c2)OCO3)N2CCOCC2)c1C (stereo not given) -2.39%, COc1ccccc1-c1nc2c(c(SCc3cccc(Cl)c3)n1)Cc1c(CO)cnc(C)c1O2 -18.2%, CCOC(=O)c1ccccc1NC(=O)N1CCc2c(sc(C)c2CC)C1c1ccccc1 (stereo not given) -20.6%, COc1cc(OC)cc(C(=O)Oc2c(Sc3ccccc3)c(C)nn2C(C)(C)C)c1 -18%, Cc1cn2c(=O)cc(COC(=O)c3cccc(NC(=O)COc4ccccc4Cl)c3)nc2s1 -24.4%, CCc1ccc(C2c3c(-c4ccccc4O)n[nH]c3C(=O)N2Cc2ccncc2)cc1 (stereo not given) -11.3%, CC(C)CCNC(=O)CCCN1C(=O)c2ccccc2Sc2ncccc21 -6.6%, COc1cc(-c2noc(CN3CCN(c4ccccc4)CC3)n2)cc(OC)c1OC -8.83%, CCOc1ccc(-n2c(Cc3ccccc3)nnc2SCc2nc(-c3ccccc3OC)no2)cc1 -9.08%, CN1CCN(C(CNC(=O)c2cccc(F)c2)c2ccc3c(c2)OCO3)CC1 (stereo not given) -12.3%, Cc1ccc(Cl)cc1N1CCN(C(=O)c2cnc(N3CCOCC3)c3ccccc23)CC1 -0.755%, O=C(Nc1cccs1)Nc1cc(C(F)(F)F)ccc1Cl -8.4%, Cc1cc(C)c(NC(=O)C2CCN(c3nc4ccccc4[nH]3)CC2)c(C)c1 -8.64%, Cc1ccc(C)c(CSc2c(C(C)C)cnc3c2c(=O)n(C)c(=O)n3C)c1 -20.5%, CN1CCN(C(=O)c2cnn(-c3cccc(F)c3)c2C2CCN(C(=O)OC(C)(C)C)CC2)CC1 3.02%, Cc1cc2c(cc1NC(=O)c1ccc(C(C)(C)C)cc1)n(C)c(=O)c(=O)n2C -7.38%, CC(C)c1ccc(CNc2nc(-c3ccco3)nn2S(=O)(=O)c2ccccc2)cc1 -1.55%, CCOc1ccccc1CNC(=O)c1nn(C)c2c1CS(=O)(=O)c1ccccc1-2 -14.3%
